The whole screen tested about 310,000 compounds, of which about 2,200 (0.71%) showed an effect of 50% or more. Effects have a minus sign here. The list shows a part of the results.

The target of the assay is human ether-à-go-go-related gene (hERG) potassium channel (human, UniProt Q12809). Description: primary screen, population patch clamp on CHO cells stably expressing hERG.
Sequence of human ether-à-go-go-related gene (hERG) potassium channel (Q12809 whole entry, looked up): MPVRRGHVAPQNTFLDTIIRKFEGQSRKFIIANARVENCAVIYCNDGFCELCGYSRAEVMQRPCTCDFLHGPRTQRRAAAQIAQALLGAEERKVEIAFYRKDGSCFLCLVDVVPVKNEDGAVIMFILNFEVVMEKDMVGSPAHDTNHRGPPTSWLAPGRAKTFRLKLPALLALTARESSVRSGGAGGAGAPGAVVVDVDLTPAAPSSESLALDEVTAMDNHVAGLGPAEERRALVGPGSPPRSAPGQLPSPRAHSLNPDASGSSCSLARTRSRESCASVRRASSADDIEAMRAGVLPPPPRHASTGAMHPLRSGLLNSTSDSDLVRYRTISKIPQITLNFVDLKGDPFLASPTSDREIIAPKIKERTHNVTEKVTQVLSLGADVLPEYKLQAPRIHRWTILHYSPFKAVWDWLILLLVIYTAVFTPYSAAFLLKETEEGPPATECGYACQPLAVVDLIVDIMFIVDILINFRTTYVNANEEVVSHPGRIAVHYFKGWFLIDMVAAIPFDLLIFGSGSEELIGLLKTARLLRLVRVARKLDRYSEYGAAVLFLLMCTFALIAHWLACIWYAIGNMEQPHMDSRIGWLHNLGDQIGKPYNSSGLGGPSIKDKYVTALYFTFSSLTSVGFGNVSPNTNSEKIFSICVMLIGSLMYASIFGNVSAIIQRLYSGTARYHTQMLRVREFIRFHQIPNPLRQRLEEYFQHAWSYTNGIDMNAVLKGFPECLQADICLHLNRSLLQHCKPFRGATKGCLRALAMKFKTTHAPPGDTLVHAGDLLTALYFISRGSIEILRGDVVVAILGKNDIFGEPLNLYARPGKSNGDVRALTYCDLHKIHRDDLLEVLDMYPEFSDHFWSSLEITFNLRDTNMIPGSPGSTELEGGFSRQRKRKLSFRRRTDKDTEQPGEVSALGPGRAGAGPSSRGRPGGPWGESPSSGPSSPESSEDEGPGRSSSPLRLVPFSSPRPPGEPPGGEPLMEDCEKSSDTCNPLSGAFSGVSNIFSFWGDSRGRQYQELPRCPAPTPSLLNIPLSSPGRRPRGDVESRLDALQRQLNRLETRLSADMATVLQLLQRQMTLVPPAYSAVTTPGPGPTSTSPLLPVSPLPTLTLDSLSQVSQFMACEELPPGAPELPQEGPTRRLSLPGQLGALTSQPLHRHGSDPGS
Regarding `CC1CCCN(c2ccc(C(=O)Nc3ccc4c(c3)OCO4)cc2[N+](=O)[O-])C1` (stereo not shown), the “hERG current change (%, negative = inhibition) at 1uM” value was 0.271%.
As for `COc1ccccc1NC(=O)c1ccc(N2CC3CC(C2)c2cccc(=O)n2C3)c(NC(=O)c2ccncc2)c1` (stereo not shown), the “hERG current change (%, negative = inhibition) at 1uM” value worked out at 11%.
With `CC1CCCN(CCCN2C(=O)C3C(C(=O)Nc4cccc(Cl)c4)C4C=CC3(O4)C2C(=O)NC2CCCCC2)C1` (stereo not shown), the “hERG current change (%, negative = inhibition) at 1uM” value came to 16.1%.
With `CCOC(=O)C(=O)N=Nc1c(O)n(C)c2ccccc12`, the “hERG current change (%, negative = inhibition) at 1uM” value is reported as -3.2%.
In the case of `CNS(=O)(=O)c1ccc2c3c(cccc13)C(=O)N2`, the “hERG current change (%, negative = inhibition) at 1uM” value is 10.1%.
Turning to `CCCC(=O)C1=C(O)C(C(=O)OC)C(C)(C)CC1=Nc1ccc(OC)cc1` (stereo not shown), the “hERG current change (%, negative = inhibition) at 1uM” value was 10.8%.
On to `Cc1sc2ncnc(N/N=C/c3cccc(O)c3)c2c1C`, for which the “hERG current change (%, negative = inhibition) at 1uM” value is -5.14%.
For `CC(C)C(=O)Nc1ccc(C(=O)NNC(=O)C(c2ccccc2)c2ccccc2)cc1` the value was 6.07%.
Take `COCC(=O)NC(C)c1nc2ccccc2[nH]1` (stereo not shown): the “hERG current change (%, negative = inhibition) at 1uM” value turned out to be 5.71%.
In the case of `CCOC(=O)COc1ccc([N+](=O)[O-])cc1`, the “hERG current change (%, negative = inhibition) at 1uM” value was found to be 4.52%.
`CSCCC(NC(=O)c1ccccc1Br)C(=O)Nc1ccc(C)cc1` (stereo not shown): the “hERG current change (%, negative = inhibition) at 1uM” value worked out at 7.5%.
Turning to `COc1cc(C(=O)Nc2ccccc2N2CCCCC2)cc(OC)c1OC`, the “hERG current change (%, negative = inhibition) at 1uM” value is 4.26%.
For `Cc1ccnc(SCC(=O)c2cccc([N+](=O)[O-])c2)n1`, the “hERG current change (%, negative = inhibition) at 1uM” value is on record as 5.6%.
For `CN(CC(=O)Nc1ccccc1Cl)C(=O)CCc1nc2ccccc2c(=O)[nH]1` the value was -11.3%; for `COc1ccc(S(=O)(=O)N(C)c2ccc(C(=O)Nc3cccnc3)cc2)cc1OC`, 7.55%.
Turning to `CC1CC(C)(C)NC(=S)N1CCC(=O)NCc1ccc(Cl)cc1` (stereo not shown), the “hERG current change (%, negative = inhibition) at 1uM” value is given as -4.99%.
Take `O=C(c1ccc(Cl)cc1)C1CCCN(Cc2cccn2-c2cccnc2)C1` (stereo not shown): the “hERG current change (%, negative = inhibition) at 1uM” value stood at 2.77%.
For `N/C(=N\OCc1ccc([N+](=O)[O-])cc1)c1ccncc1` the value was 1.6%; for `CCOCCc1c(O)[nH]c(=S)[nH]c1=O`, 14.3%.
With `COc1ccc(/C=N/Nc2nncc3ccccc23)cc1`, the “hERG current change (%, negative = inhibition) at 1uM” value came out at 11.1%.
For the compound `CC(=O)OCC#CCSc1nc2ccccc2n1C`, the “hERG current change (%, negative = inhibition) at 1uM” value amounted to 8.19%.
In the case of `Cc1cc(N)n(-c2ncnc3scc(-c4ccc(Cl)cc4)c23)n1`, the “hERG current change (%, negative = inhibition) at 1uM” value is on record as 9.54%.
With `O=C(/C=C/c1ccc(O)c(O)c1)OC1C(O)CC(OC(=O)/C=C/c2ccc(O)c(O)c2)(C(=O)O)CC1O` (stereo not shown) the figure was 8.47%; with `CC(C)(C)C1CCC(=NNC(=O)CC(=O)NCc2ccccc2)CC1` (stereo not shown), 10.2%.
Consider `C#CCOCCOCCOCCNc1nc(N2CCN(C(=O)[C@H](Cc3ccc(O)cc3)n3cc([C@@H](N)C(C)CC)nn3)CC2)nc(N2CCN(C(=O)[C@H](Cc3cc4ccccc4[nH]3)n3cc([C@@H](N)C(C)CC)nn3)CC2)n1.Cl` (stereo partly shown), for which the “hERG current change (%, negative = inhibition) at 1uM” value worked out at 4.13%.

For the origin of these results see paper PMC4336329 (PLoS ONE, 2015).
